# “And” between values parts separate entries of the source, which are not always exact repeats. Identical values can stand only once. About 6,500 (4.3%) of roughly 150,000 compounds were called active. This list was built around the results that the source calls inconclusive (neither active nor inactive); the mix of calls is not that of the screen. The call rests on the fitted dose curve; in most records, active means well fitted inhibition curve with a large enough effect (not every such curve was filed as active); inconclusive means small, poorly fitted or top-dose-only effect, or another doubt; inactive means no such curve, though single readings can be large or run the other way. Potencies of inconclusive entries are doubtful fits and often do not repeat.
# Target: 15-hydroxyprostaglandin dehydrogenase [NAD(+)] (Homo sapiens) (UniProt P15428)
# Test: qHTS Assay for Inhibitors of HPGD (15-Hydroxyprostaglandin Dehydrogenase)
# Details: purified HPGD, NADH fluorescence kinetic, PGE2 substrate; activity change, negative = inhibition: active compounds read low
# Summary of the method: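 NADH formation kinetics: reaction with 30 uM PGE2 and 1 mM NAD+ (final), 20 nM enzyme, Tris-HCl pH 8 with Tween 20, after 15 min compound preincubation at room temperature. Fluorescence change, last versus first of five reads.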
# On the % scale 0 is the no-effect control and ±100 the full control effect; potency means the concentration at half of the fitted maximal effect; tags describe the fitted curve by direction and shape.
# UniProt P15428, sequence (P15428 whole entry, looked up): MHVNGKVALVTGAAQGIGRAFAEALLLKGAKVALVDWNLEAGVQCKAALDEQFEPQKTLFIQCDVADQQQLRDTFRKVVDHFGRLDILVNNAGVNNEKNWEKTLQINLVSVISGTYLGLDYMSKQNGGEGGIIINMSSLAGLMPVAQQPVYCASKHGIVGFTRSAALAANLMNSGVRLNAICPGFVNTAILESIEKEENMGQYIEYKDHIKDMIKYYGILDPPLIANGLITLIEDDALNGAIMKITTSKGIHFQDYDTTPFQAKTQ
Compound,"activity change, negative = inhibition",Potency
CCN[C@]1(c2cccs2)CCCCC1=O,inactive: -1.64%,
CCCN1CCc2cc(O)cc3c2C1Cc1ccc(O)c(O)c1-3 (centres undefined),,"inconclusive: 5.01 µM [inhibitor, full curve]"
CCOc1cc(-c2c(C#N)c(=O)[nH]c3c2c(C)nn3-c2ccc(F)cc2)ccc1O,,"inconclusive: 35.5 µM [inhibitor, partial curve]"
CC(C)[C@H]1C(=O)N2CCC[C@H]2[C@]2(O)O[C@](NC(=O)[C@@H]3C=C4c5cccc6[nH]cc(c56)C[C@H]4N(C)C3)(C(C)C)C(=O)N12,,"inconclusive: 31.6 µM [inhibitor, partial curve]"
N#CC(C#N)=Cc1ccc(O)c(O)c1,,active: 35.5 µM and active: 31.6 µM
O=P(O)(O)c1ccccc1 (tested in a mixture with another compound),inactive: -7.45%,
Cc1cc(C)cc(N2C(=O)NC(=O)/C(=C/c3cccn3-c3ccc(Cl)cc3)C2=O)c1,,active: 3.98 µM
Cc1ccsc1-c1nc(CSCC(=O)N2CCC3(CC2)OCCO3)c(C)o1,,"inconclusive: 28.2 µM [inhibitor, single point]"
CC(C)C[C@H]1C(=O)N2CCCC2[C@]2(O)O[C@](NC(=O)[C@@H]3C=C4c5cccc6[nH]cc(c56)CC4N(C)C3)(C(C)C)C(=O)N12 (some centres undefined),,"inconclusive: 28.2 µM [inhibitor, partial curve] and inconclusive: 35.5 µM [inhibitor, partial curve]"
c1ccc(N2CCCC3(CCNCC3)C2)nc1,inactive: -29.3%,
CS(=O)(=O)Nc1ccc(Cc2noc(-c3ccc4[nH]cc(CCN)c4c3)n2)cc1,,"inconclusive: 28.2 µM [inhibitor, partial curve, poor fit]"
CC[C@]1(OC(=O)CN)C(=O)OCc2c1cc1n(c2=O)Cc2cc3ccccc3nc2-1,,"inconclusive: 3.16 µM [inhibitor, partial curve]"
COc1ccc(C2=NCC(=O)N(CC(=O)NCc3ccco3)c3sc4c(c32)CCCC4)cc1OC,,"inconclusive: 35.5 µM [inhibitor, single point]"
CCC(=NCc1cccnc1)c1c(O)n(Cc2ccccc2)c(=O)[nH]c1=O,,active: 15.8 µM
COCCCn1c(N)c(C(=O)NCCC(C)C)c2nc3ccccc3nc21,,"inconclusive: 31.6 µM [inhibitor, partial curve]"
O=c1ccc2cc(O[C@H]3O[C@@H](CO)[C@@H](O)[C@@H](O)[C@@H]3O)c(O)cc2o1,,"inconclusive: 12.6 µM [inhibitor, partial curve]"
O=C(C1CCCCC1)N1CCC(c2nc3c(nnn3Cc3c(F)cccc3Cl)c(=O)[nH]2)CC1,,"inconclusive: 10 µM [inhibitor, partial curve, poor fit]"
CCN(CC)C(=O)c1ccc(NC(=O)Cn2nc(C)c3ccccc3c2=O)cc1,,active: 10 µM
CC1COC2=C1C(=O)C(=O)c1c2ccc2c1CCCC2(C)C (centres undefined),,active: 20 µM
[Cl-].[Cl-].[Hg+2],,active: 0.1 µM
O=C(N/N=C/c1c(O)n(Cc2ccccc2)c(=O)[nH]c1=O)c1ccccc1,,"inconclusive: 25.1 µM [inhibitor, partial curve]"
NC(=O)CI,,"inconclusive: 39.8 µM [inhibitor, single point]"
CCOP(=S)(OCC)SCn1c(=O)oc2cc(Cl)ccc21,,"inconclusive: 35.5 µM [inhibitor, single point]"

Compound,"activity change, negative = inhibition",Potency
O=c1c2ccccc2nc(-c2cccs2)n1-c1ccccc1,,"inconclusive: 28.2 µM [inhibitor, single point]"
Cc1cccc(N2C(=O)/C(=C/c3ccc(CN(CCC#N)S(C)(=O)=O)o3)C(=O)NC2=S)c1,,active: 22.4 µM
CCCNc1oc(-c2cccc3ccccc23)nc1C#N,,"inconclusive: 14.1 µM [inhibitor, partial curve]"
O=C1/C(=C\c2ccccc2)C[C@@]2(O)[C@H]3Cc4ccc(O)c5c4[C@@]2(CCN3CC2CC2)[C@@H]1O5,inactive: -13.7%,
O=C1C=CC(=O)C(Cl)=C1,,active: 1 µM
CC(=O)c1ccc(OC(NC(=O)c2ccco2)C(Cl)(Cl)Cl)cc1 (centres undefined),,active: 25.1 µM
CN1C(=O)C(=Cc2ccccc2Oc2ccc(Cl)c(F)c2)C(=O)N(C)C1=O,,active: 11.2 µM
CN(C)C(=O)Oc1ccc(-c2cn3cc(C(F)(F)F)ccc3n2)cc1,,"inconclusive: 3.55 µM [inhibitor, single point]"
O=C1NC(=S)NC(=O)C1C/C=C/c1ccccc1,,active: 10 µM
Cc1sc2ccccc2c1CC1=NCCN1,,"inconclusive: 20 µM [inhibitor, partial curve]"
CC1(C)Cc2c(c(N3CCOCC3)nc3sc4c(NCc5ccccc5)nnnc4c23)CS1,,"inconclusive: 28.2 µM [inhibitor, partial curve, poor fit]"
COc1cc(/C=N/n2cnnc2)ccc1OC(=O)N(C)C,,"inconclusive: 20 µM [inhibitor, partial curve]"
CCN(CC)C(=O)c1ccc(NC(=O)CSc2nnnn2-c2cc(OC)ccc2OC)cc1,,active: 8.91 µM
CCN(CC)C(=O)N[C@H]1C=C2c3cccc4[nH]cc(c34)C[C@@H]2N(C)C1,,"inconclusive: 14.1 µM [inhibitor, partial curve]"
O=c1[nH]c(O)c(/C=C2\C=NN=C2c2ccccc2)c(=O)[nH]1,,"inconclusive: 31.6 µM [inhibitor, single point]"
Oc1ccc2c3c1OC1C(O)CC[C@]4(O)C(C2)N(CC2CCC2)CC[C@]314 (some centres undefined),inactive: -0.724%,
COc1cccc(-n2c(CN3CCN(C)CC3)nc3ccc([N+](=O)[O-])cc3c2=O)c1,,active: 28.2 µM
CC1(C)COC(Nc2cccc(Cl)c2)=N1,,"inconclusive: 35.5 µM [inhibitor, single point]"
CCOP(=O)(OCC)c1nc(-c2cccc3ccccc23)oc1NCc1ccccc1,,"inconclusive: 31.6 µM [inhibitor, partial curve]"
CC(C)CNCCc1ccccn1,inactive: -3.08%,
Cc1ccccc1C1=NCC(=O)N(CC(=O)NCc2ccco2)c2sc3c(c21)CCCC3,,active: 39.8 µM
COc1cc2c(cc1O)C[C@H]1NCCc3cc4c(c-2c31)OCO4,,"inconclusive: 25.1 µM [inhibitor, partial curve]"
CN[C@H](Cc1ccccc1)c1cccc(OC)c1O,inactive: -5.78%,

Compound,"activity change, negative = inhibition",Potency
CN1C(=O)C(=Cc2ccc(-c3cccc(Cl)c3)o2)C(=O)N(C)C1=O,,active: 7.94 µM
CCCN(CCC)C(=O)Cc1c(-c2ccc(Cl)cc2)nc2c(Cl)cc(Cl)cn12,inactive: -18.8%,
COC(=O)C1=Nc2ccccc2/C1=C\c1c(O)n(-c2cc(OC)ccc2OC)c(=O)[nH]c1=O,,active: 14.1 µM
CC(C)CN(CC(C)C)c1ccc(C=C2C(=O)NC(=S)NC2=O)cc1[N+](=O)[O-],,active: 8.91 µM
CC1(C)NCCN2C(=O)CSC21 (centres undefined),,"inconclusive: 35.5 µM [inhibitor, single point]"
CCC(=Nc1ccc(OC)cc1OC)c1c(O)n(C2CCCCC2)c(=O)[nH]c1=O,,active: 28.2 µM
CN1C[C@@H](CO)C=C2c3cccc4[nH]cc(c34)CC21 (some centres undefined),,"inconclusive: 35.5 µM [inhibitor, partial curve]"
CCCCn1c(O)c(C(CC)=NCc2ccco2)c(=O)[nH]c1=O,inactive: 1.83%,
O=C(c1ccc2c(=O)n(Cc3ccc4c(c3)OCO4)c(=S)[nH]c2c1)N1CCC2(CC1)OCCO2,,active: 31.6 µM
CO[C@@H]([CH2][Hg])CN1C(=O)c2ccccc2S1(=O)=O.Cn1c(=O)c2nc[nH]c2n(C)c1=O,,active: 1.41 µM
COC(=O)[C@]1(C)CC[C@@]2(C)CC[C@@]3(C)C4=CC=C5C(=CC(=O)C(O)=C5C)[C@@]4(C)CC[C@@]3(C)C2C1 (some centres undefined),,active: 20 µM
Cc1cc(OCC(=O)OC(C)C)c2c3c(c(=O)oc2c1)CCCC3,,"inconclusive: 35.5 µM [inhibitor, partial curve]"
CN1C[C@H](C(=O)N[C@]2(C)O[C@@]3(O)[C@@H]4CCCN4C(=O)[C@H](Cc4ccccc4)N3C2=O)C=C2c3cccc4[nH]cc(c34)C[C@H]21,,"inconclusive: 12.6 µM [inhibitor, single point]"
Cc1cc(/C=C2\C(=O)NC(=O)N(Cc3ccccc3)C2=O)c(C)n1-c1ccc(Cl)c(C(=O)O)c1,,active: 17.8 µM
N#CCc1ccccc1,inactive: -8.43%,
CNc1ccccc1C(=O)O,,"inconclusive: 28.2 µM [inhibitor, partial curve]"
O=[N+]([O-])C(Br)Br,,"inconclusive: 12.6 µM [inhibitor, single point]"
C[C@@H]1Cc2c(Cl)cc(C(=O)N[C@@H](Cc3ccccc3)C(=O)O)c(O)c2C(=O)O1,,"inconclusive: 28.2 µM [inhibitor, partial curve]"
Oc1c(Cl)c(Cl)cc(Cl)c1Cl,,"inconclusive: 5.62 µM [inhibitor, partial curve]"
CN1CCc2cc(O)cc3c2C1Cc1ccc(O)c(O)c1-3 (centres undefined),,"inconclusive: 3.16 µM [inhibitor, full curve]"
COc1ccc(NC(=O)c2c(C)nn(Cc3ccccc3Cl)c2Cl)cc1Cl,inactive: -8.15%,
C=CCc1cc(C=C2C(=O)N(C)C(=O)N(C)C2=O)cc(OCC)c1OCc1ccccc1,,active: 14.1 µM
CC1(C)C(O)CC(O)[C@]2(C)C1CC(O)[C@]1(C)C2CC[C@@]2(C)C(c3ccoc3)CC3OC312 (some centres undefined),inactive: -18.3%,

# — PubChem BioAssay AID894 (National Center for Advancing Translational Sciences (NCATS), 2007)
